According to the supplement of paper PMC3334620:
Whole data set: some 33,000 sequences, median “E-score (-0.5 to 0.5)” near -0.04, cut for the highest 2% near 0.36. The list shows a part of the results.

These sequences were tested against T1, Hmlalpha2 (UniProt P0CY09) (assay: PBM E-score (8-mer binding enrichment) (E-score (-0.5 to 0.5)); higher = stronger / more preferred TF binding; most listed sequences are background and not binding sites). Conditions: protein concentration: 200 nM; construct: GST-full length.
T1 sequence: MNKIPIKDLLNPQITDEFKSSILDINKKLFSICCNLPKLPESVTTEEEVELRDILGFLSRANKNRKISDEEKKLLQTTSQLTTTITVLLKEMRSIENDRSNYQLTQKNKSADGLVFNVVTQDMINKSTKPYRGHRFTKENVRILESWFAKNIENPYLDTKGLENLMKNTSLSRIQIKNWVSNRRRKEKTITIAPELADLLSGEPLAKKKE
Procedure, shortened: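 GST-tagged yeast TFs (full-length or DNA-binding domain) were made by PURExpress in vitro transcription/translation and applied at about 100-200 nM to universal all-10-mer Agilent arrays. The arrays were made double-stranded by primer extension, on fresh or once-stripped slides. Bound protein was detected with fluorescent anti-GST, and scans were normalised with masliner. Each ungapped eight-base word, pooled with its reverse complement, received an E-score (modified Wilcoxon-Mann-Whitney statistic) from the Universal PBM Analysis Suite.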

| Sequence | PBM E-score |
| --- | --- |
| AGGTAAAT | 0.24 |
| CGGGGCTC | -0.354 |
| GGTGATAA | -0.171 |
| GAACCGAA | 0.0771 |
| AAATCCGG | -0.18 |
| GGGAAACC | 0.0275 |
| ACAGCGCT | 0.08 |
| GGAGCAAC | -0.0607 |
| CATCACCC | -0.33 |
| AAGTTGAC | 0.115 |
| CAAAAGCA | 0.122 |
| AGCGAAGC | -0.0905 |
| GTGAAAAC | 0.056 |
| CAGGAAAC | -0.00342 |
| AACTTACG | 0.295 |
| TTAATCAA | 0.266 |
| CCGAGACC | -0.141 |
| GTACTATA | 0.178 |
| CTTGTTCC | -0.0361 |
| CATTGTAG | 0.104 |
| GAACACTA | 0.0328 |
| ATTGTTTA | 0.268 |
| ACGACCTC | -0.0124 |
| AGGTATTG | 0.131 |
| ATATACAT | 0.435 |

| Sequence | PBM E-score |
| --- | --- |
| CCTCCAGC | -0.4 |
| GAAACTAC | 0.174 |
| CGTGTCAG | 0.273 |
| AAATTCCT | -0.135 |
| CTGTGAAA | 0.153 |
| ATAGTTCG | 0.0279 |
| ACGCACGA | 0.277 |
| CAGGCTAG | -0.333 |
| ATAGTAAC | 0.171 |
| GGACGCAA | -0.265 |
| ATGCGTCC | -0.158 |
| ACAGTCAA | 0.0515 |
| TCAAAGCA | 0.0358 |
| AACACAAA | 0.261 |
| CATTGTCG | 0.0807 |
| ACGTTACT | 0.174 |
| AGAGTAAA | 0.17 |
| GCGAGCTA | -0.0464 |
| CGTGCCCC | -0.0767 |
| CGCTACGA | -0.117 |
| CTGTGTGC | -0.0664 |
| CTCGAACC | -0.106 |
| CACAGGAG | 0.0451 |
| TAACAGTA | 0.172 |
| AGGCCCAG | -0.212 |

| Sequence | PBM E-score |
| --- | --- |
| GATAGCCA | -0.212 |
| CATGCTAC | 0.101 |
| CCCGACCC | -0.224 |
| ACTATATA | 0.146 |
| ACCGACAG | -0.252 |
| ACCGAGTC | -0.158 |
| CTGATAAA | 0.056 |
| AGTTGAGA | -0.13 |
| GCTTGCTA | -0.165 |
| CGTCAGTC | -0.109 |
| GGCGCCAA | -0.0737 |
| CGCACACA | 0.0898 |
| AAGTTTCA | 0.0274 |
| GGCGGCCA | -0.144 |
| ATTTACGC | 0.347 |
| ATATTCGG | -0.0737 |
| TATACTAA | 0.139 |
| ACGTGCCA | 0.103 |
| ATCGTCTG | -0.165 |
| CCCGCGGG | -0.0779 |
| GGACCGTA | -0.145 |
| GCACAGCA | 0.128 |
| AACAACGT | 0.227 |
| GCACAGAA | 0.0198 |
| ACTGGGAC | -0.0158 |

| Sequence | PBM E-score |
| --- | --- |
| AGACGATC | -0.29 |
| CTGCGTTC | 0.0961 |
| CATACCAA | 0.141 |
| CCGGAGTA | 0.00533 |
| AACCTCCT | -0.0564 |
| GACCTGGA | -0.163 |
| AAAGAATG | 0.204 |
| CAATCCGA | 0.0675 |
| AGTGGCCC | -0.135 |
| GCCCCACC | -0.336 |
| AGCCTAAC | 0.0259 |
| AGGTCATA | -0.0632 |
| CAGTCGAG | -0.188 |
| GGACTAAC | -0.0725 |
| ACATAAAT | 0.322 |
| CCGAGCTC | -0.0675 |
| AGCAACAT | 0.228 |
| CCAGTGCA | -0.0365 |
| AGAAGATC | -0.212 |
| CCCCGGGA | -0.242 |
| ACTACCCA | -0.0883 |
| AAACCACC | -0.166 |
| CCTGCGGC | -0.341 |
| GGCCCAGA | -0.435 |
| AAGCCGAT | -0.0635 |

| Sequence | PBM E-score |
| --- | --- |
| TTACAAAA | 0.266 |
| ATAATCAC | 0.16 |
| CCTCGTCC | -0.266 |
| CCTCTGAA | -0.366 |
| ATATGTTC | 0.198 |
| GGTATGAC | -0.156 |
| CCGTGCTC | 0.00271 |
| TGAGATAA | -0.0523 |
| ATCCAAGA | -0.0469 |
| CTCTGATC | -0.139 |
| CATGCTGG | 0.105 |
| ACTTCGAC | 0.0911 |
| CGCCAAAA | -0.133 |
| ACGACAGA | -0.112 |
| GACGAGCA | -0.127 |
| ACTCCGCG | -0.096 |
| GTGGAATA | 0.173 |
| ACCGGCGC | -0.125 |
| ATGTTGTG | 0.362 |
| AGGAACTG | -0.214 |
| CATTCTTA | -0.0599 |
| ACCGCCAA | 0.0106 |
| TATTCCAA | 0.114 |
| GTGGCGTA | -0.0203 |
| TCGACCAA | -0.0149 |

| Sequence | PBM E-score |
| --- | --- |
| GCGTAGAC | 0.116 |
| CTGTTACC | -0.0695 |
| CTACTTGA | 0.107 |
| ATGTGGAC | 0.0672 |
| GCTCTAGA | -0.349 |
| ATGGACGA | 0.00177 |
| GGCAGCCA | -0.281 |
| CCTTCTTA | -0.0419 |
| CAGATCCC | -0.131 |
| ATAAGATC | -0.0162 |
| CACAACCG | 0.21 |
| GGACCGGA | -0.311 |
| AGGACCGG | -0.398 |
| GAATATCA | -0.187 |
| CTGGACGC | -0.0994 |
| CGTGAAGA | -0.0345 |
| ACCAAAAC | 0.0544 |
| ATGTCTCC | 0.104 |
| ACCGGGAG | -0.23 |
| TAACACTA | 0.316 |
| CGCTTCTA | 0.0654 |
| GCACACTA | 0.00254 |
| TGCTAGCA | 0.16 |
| CCCGAAGG | -0.199 |
| AAGTGCGA | -0.185 |

| Sequence | PBM E-score |
| --- | --- |
| CCGCCTTC | -0.351 |
| GCGTTTAA | 0.29 |
| CCACTGTC | -0.304 |
| AGTTAAAG | 0.208 |
| ACCATCTG | -0.18 |
| CCTTCCTA | -0.271 |
| CGCGCGAA | 0.0551 |
| CCAGGAAA | -0.0122 |
| AGAACGCG | 0.242 |
| AAGCGAAA | -0.0908 |
| ACATTCCG | 0.0661 |
| GACGGCGA | -0.235 |
| AACGAAGT | 0.0804 |
| AACACATG | 0.363 |
| CTCAGCAA | 0.107 |
| CAGGGCTA | -0.0474 |
| AGTCTATA | 0.028 |
| AATTAAAG | -0.0351 |
| ACCGTGGC | -0.134 |
| AATCAAAG | -0.149 |
| ATGATGAC | -0.101 |
| TCATTACA | 0.439 |
